# Experimental data from PubChem BioAssay AID2546 (National Center for Advancing Translational Sciences (NCATS), 2010).
# Among all 310,000 compounds or so, about 11,000 (3.5%) were called active. The inconclusive results got no clear call from the source; some entries with a clear call stand among them for comparison. The call rests on the fitted dose curve; in most records, active means well fitted inhibition curve with a large enough effect; inconclusive means small, poorly fitted or top-dose-only effect, or effect the other way; inactive means flat fitted curve, though single readings scatter. Potencies of inconclusive entries are left out as doubtful fits.
# Assay: VP16 counterscreen qHTS for inhibitors of ROR gamma transcriptional activity;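 further: Gal4-VP16 expression switched on by copper sulfate through the metallothionein promoter; nearly all actives have a fitted effect of over 50% in size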
# Conditions: Drosophila S2 Gal4-VP16 UAS-luciferase, luminescence, 20 h; activity, negative = inhibition: at 53.6 µM (top of the series)
# On the % scale 0 is the no-effect control and ±100 the full control effect; potency means the concentration at half of the fitted maximal effect; tags describe the fitted curve by direction and shape.
Structure (SMILES),"activity, negative = inhibition",Potency
NS(=O)(=O)c1ccc(NC(=O)CN2CCN(S(=O)(=O)/C=C/c3ccccc3)CC2)cc1,inactive: -1.8%,
COc1cccc(NS(=O)(=O)c2ccc(Br)s2)c1,,active: 4.47 µM
COc1cccc(N(C)C(=S)Oc2ccc3c(c2)CCCC3)n1,,"inconclusive [inhibitor, single point]"
O=C(c1ccc(-n2c(SCc3cc(F)ccc3F)nc3ccccc3c2=O)cc1)N1CCOCC1,inactive: 0.286%,
CCCNC(=O)CC(NS(=O)(=O)c1ccc(OC)cc1)c1ccco1 (stereo not given),,"inconclusive [inhibitor, single point]"
Clc1ccccc1-c1cc(NCc2cccnc2)ncn1,inactive: -11.1%,
CC(C)C(=O)NNC(=O)c1ccccn1,inactive: -6.63%,
CCCCCCC(=O)N1CCC(c2nc3c(nnn3Cc3ccccc3Cl)c(=O)[nH]2)CC1,,active: 15.8 µM
CCN(CCC(=O)Nc1ccc(Br)c(C)c1)Cc1ccccc1,inactive: 2.57%,
CCOc1cc(/C=C(/C#N)C(=O)Nc2ccc(OC)cc2)ccc1OCc1ccc(C(=O)O)cc1,,"inconclusive [inhibitor, single point]"
Oc1c(N=NC(=S)Nc2ccccc2F)c2ccccc2n1Cc1ccccc1Cl,,active: 6.31 µM
Cc1ccc(-n2nnnc2-c2cnn(-c3cccc(F)c3)c2C(F)(F)F)cc1,,"inconclusive [inhibitor, single point]"
Cc1ccc(S(=O)(=O)Nc2ccc(NC(=O)c3c(F)c(F)c(F)c(F)c3F)cc2)cc1,,"inconclusive [inhibitor, single point]"
COc1ccc(CC(=O)Nc2cccnc2)cc1,inactive: -6.81%,
Cc1ccc([N+](=O)[O-])cc1N(CC(=O)NC1CCCC1)S(C)(=O)=O,,"inconclusive [inhibitor, single point]"
CCOc1ccc2[nH]c(=O)c(CN(Cc3cccs3)Cc3nnnn3C(C)(C)C)cc2c1,,"inconclusive [inhibitor, single point]"
c1cncc(-c2nnc(-c3cccnc3)nn2)c1,,"inconclusive [inhibitor, single point]"
COC(=O)c1cc(C)nc(N)c1C#N,inactive: 5.82%,
COc1ccc(-c2n[nH]c(C)c2-c2ccc(Cl)cc2)c(O)c1OC,,active: 7.08 µM
COc1cccc(NC(=S)N2c3ccccc3CC2C)c1 (stereo not given),,"inconclusive [inhibitor, single point]"
CC(=O)n1cc(N(C(=O)CCl)c2ccc([N+](=O)[O-])cc2)c2ccccc21,,"inconclusive [inhibitor, single point]"
C/C(=N\NC(=O)c1cccc(Br)c1)c1ccc(Br)cc1,,"inconclusive [inhibitor, single point]"
Cc1nc2ccccc2c(=O)n1/N=C/c1ccccc1O,,"inconclusive [inhibitor, single point]"
CC(=O)Nc1ccc(S(=O)(=O)NC(C)CCc2ccccc2)cc1 (stereo not given),inactive: 0.492%,
COc1ccc(N(CC(=O)Nc2cccc(C)c2)S(=O)(=O)c2ccc(C)cc2)cc1OC,inactive: -5.47%,

Structure (SMILES),"activity, negative = inhibition",Potency
CCCCSc1nnc(-c2ccc(C)cc2)o1,,"inconclusive [inhibitor, single point]"
Cc1ccccc1C(=O)c1cccn1CC(=O)NCCN1CCN(c2cccc(C)c2C)CC1,,"inconclusive [inhibitor, partial curve]"
CC(=O)Nc1ccc2c(CSc3nnc(N)s3)cc(=O)oc2c1,,"inconclusive [inhibitor, partial curve]"
COc1ccc(C(=O)/C=C/c2cc(OC)c(O)c(OC)c2)c(F)c1,,"inconclusive [activator, single point]"
N/C(CCS(=O)(=O)c1ccc(Cl)cc1)=N\OC(=O)c1ccccc1C(F)(F)F,,"inconclusive [inhibitor, partial curve]"
O=C(CN(Cc1ccccc1)S(=O)(=O)c1ccc(S(=O)(=O)N2CCOCC2)cc1)Nc1ccccc1,,"inconclusive [activator, single point]"
CCS(=O)(=O)c1ccc2oc(SCC(=O)NC34CC5CC(CC(C5)C3)C4)nc2c1,inactive: -8.25%,
CC1CCCCN1CCn1c(=S)[nH]c2cc3c(cc2c1=O)OCO3 (stereo not given),,"inconclusive [inhibitor, single point]"
CCC(C(=O)NC1CCCC1)N(C(=O)Cn1nnc(-c2ccc(C)o2)n1)c1ccc(OC)cc1 (stereo not given),inactive: -8.61%,
C/C(=N\NC(=S)NCc1ccccc1)c1ccc(Cl)s1,,active: 8.91 µM
O=C1CC(c2ccco2)CC(O)=C1C=Nc1cc(Cl)ccc1O (stereo not given),,"inconclusive [inhibitor, single point]"
COc1ccc(C(=O)CCN2CCCCCC2)cc1,,active: 5.01 µM
CCC(=O)N(C)CCc1cc2c(c(OC)c1/C=N/NC(=O)c1ccccc1O)OCO2,,"inconclusive [inhibitor, single point]"
O=C(Nc1ccc(F)cc1)C1=CC(=O)N2CCN=C2S1,,"inconclusive [inhibitor, partial curve, poor fit]"
COc1cc(C)c(CN2CCC(Cc3ccccc3)CC2)cc1C,inactive: -0.238%,
COc1ccc(OC)c(NC(=S)NN2CCN(C)CC2)c1,inactive: 5.71%,
FC(F)(F)c1ccc(Cl)c(-n2c(-c3ccco3)n[nH]c2=S)c1,,"inconclusive [inhibitor, single point]"
COc1ccc(CNC(=S)Nc2ccccc2-c2ccccc2)cc1,,active: 7.08 µM
Cc1cccc2sc(NC(=O)CN3C(=O)c4ccccc4C3=O)nc12,,"inconclusive [inhibitor, single point]"
CCN(CC)c1ccc(/C=N/NC(=O)c2c(-c3ccccc3)noc2C)cc1,,"inconclusive [inhibitor, single point]"
CCN1c2ccccc2N(C)C1(C)c1ccccc1 (stereo not given),,"inconclusive [inhibitor, single point]"
CN(C)S(=O)(=O)c1cccc(NC(=O)COC(=O)C2(c3ccccc3F)CCCC2)c1,,"inconclusive [inhibitor, single point]"
COCCNC(=S)N/N=C/c1ccc([N+](=O)[O-])cc1,,"inconclusive [inhibitor, single point]"
COc1ccc(C)cc1NC(=O)NNC(=O)C(C)Oc1ccc(F)cc1Cl (stereo not given),,"inconclusive [inhibitor, partial curve]"
CCc1cccc(CC)c1N(COC)C(=O)Cn1nnc2ccccc21,inactive: -1.02%,

Structure (SMILES),"activity, negative = inhibition",Potency
O=C1NC(c2ccc(-c3ccccc3[N+](=O)[O-])o2)C(C(=O)c2ccc(Cl)cc2)C(O)(C(F)(F)F)N1 (stereo not given),,"inconclusive [inhibitor, single point]"
O=C(C1CC1)N(CCN(C(=O)C1CC1)c1ccccc1)c1ccccc1,,"inconclusive [inhibitor, partial curve, poor fit]"
CCOc1ccc(NC(=O)CC2C(=O)N(c3ccc(OCC)cc3)C(=S)N2C2CC2)cc1 (stereo not given),,"inconclusive [inhibitor, single point]"
Cc1ccc2c(c1)c1c(n2CC(O)Cn2nc(C)c(Br)c2C)CCCC1 (stereo not given),,"inconclusive [inhibitor, partial curve]"
CCC(OCC(O)CN1CCN(CCN2C(=O)c3cccc4cccc(c34)C2=O)CC1)c1ccccc1 (stereo not given),,"inconclusive [inhibitor, single point]"
CCOC(=O)/C=C/CCC/C=C/C(=O)c1ccccc1,inactive: 0.223%,
COc1ccc(NC(=S)NC(NC(=O)c2ccccc2Cl)C(Cl)(Cl)Cl)c([N+](=O)[O-])c1 (stereo not given),inactive: -4.77%,
Cn1c(SCC(=O)N/N=C/c2ccc([N+](=O)[O-])s2)nnc1-c1ccccc1,,active: 20 µM
COc1ccc(-c2cnnc(N/N=C/c3ccc(O)c(O)c3)n2)cc1,,active: 8.91 µM
COc1ccc(NC(=O)N2CCN(c3cccc(C(F)(F)F)c3)CC2)cc1,inactive: 4.1%,
O=C(NC(=S)Nc1ccccc1O)c1ccc(-c2ccc(Cl)cc2)o1,,active: 7.94 µM
O=C(/C=C/Nc1ccc(F)c(Cl)c1)c1ccccc1,inactive: -0.334%,
CCOC(=O)CC1(NC(=O)c2cc(COc3cncc(Cl)c3)on2)CCCCC1,,"inconclusive [inhibitor, single point]"
C#CCSC1=C(C#N)C(c2cccs2)C(C(=O)OCC)=C(C)N1 (stereo not given),,"inconclusive [inhibitor, single point]"
Cc1ccc2cccnc2c1NC(=S)NC(=O)c1ccccc1,,active: 3.55 µM
C=CC[C@H]1CC(Cc2ccccc2)=C[C@H](CC=C)N1,inactive: 3.73%,
Cc1nc(-c2ccc(Cl)cc2)sc1C(=O)O,,"inconclusive [inhibitor, partial curve]"
O=S(=O)(Nc1nc2ccccc2s1)c1cc(F)ccc1F,inactive: 6.75%,
CCNC(=O)CSc1nc(-c2ccccc2)cs1,,"inconclusive [activator, single point]"
O=C(NCC(=O)N1CC(O)CC1C(=O)N1CCCC1C(=O)OCc1ccccc1)OCc1ccccc1 (stereo not given),inactive: -12.8%,
COC(=NC(C)C)NC(C)C,inactive: 5.41%,
CN(c1ccc(OCC(=O)N2CCCCC2)cc1)S(=O)(=O)c1cccs1,inactive: 0.617%,
O=C(CNc1c(Br)cc(Br)cc1Br)NN=C1CCCCC1,,"inconclusive [inhibitor, single point]"
NC(=O)NCCN1CCN(c2ncc(C(F)(F)F)cc2Cl)CC1,inactive: -6.56%,
CCN(CCNC(=O)C1CCCN(Cc2nc(-c3ccc(OC)cc3)oc2C)C1)c1ccccc1 (stereo not given),,"inconclusive [inhibitor, single point]"
